This is an account of results in PubChem BioAssay AID1240 (Sanford-Burnham Center for Chemical Genomics, 2008).

Each structure is given as a SMILES string. Out of some 50,000 compounds screened, about 800 (1.6%) showed an effect of 50% or more. The list shows a part of the results.

In this assay the target is Bcl-2-like protein 10 (Homo sapiens) (UniProt Q9HD36). As to the kind of experiment: TR3 peptide-Bcl-B binding displacers, biochemical primary FP assay, phenotype converters (AID 1240).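 Further: 0% = Bcl-B with tracer peptide and DMSO and 100% = tracer peptide lacking Bcl-B.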 To be noted: GST-Bcl-B / FITC-TR3 peptide fluorescence polarization; stronger effect = higher value; compound at 3.75 mg/L. In general terms: In fluorescence polarisation assays a small probe gives low polarisation when free and higher when bound to something large.
UniProt Q9HD36, sequence (Q9HD36 whole entry, looked up): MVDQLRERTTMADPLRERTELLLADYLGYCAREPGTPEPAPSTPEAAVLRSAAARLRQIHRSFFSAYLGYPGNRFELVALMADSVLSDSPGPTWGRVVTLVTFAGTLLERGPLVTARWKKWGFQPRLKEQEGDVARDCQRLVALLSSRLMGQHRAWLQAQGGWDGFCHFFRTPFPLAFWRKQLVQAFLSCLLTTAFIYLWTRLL
Take `CCOC(=O)C1=C(C)NC(=O)NC1c1ccco1` (centres undefined): the displacement was -5.1%. In the case of `CC1(C)CC(=O)c2c(nc(SC3C=CCCC3)c(C#N)c2-c2ccccc2)C1` (centres undefined) it was -13.6%; in that of `CCOc1ccc(N(CC(=O)N(C)C)S(=O)(=O)c2ccc(SC)cc2)cc1`, 1.4%. Under `CCCOc1cccc(C(=O)Nc2ccc(Cl)cn2)c1` stands 13.2%; under `CCCc1nccn1S(=O)(=O)c1ccc(Br)c2ccccc12`, 12.3%. Under `CC1(C)CC(=O)C=C(NCCc2ccccc2)C1` stands -1.6%; under `COc1cc(OC)cc(C(=O)Nc2ccc([N+](=O)[O-])cn2)c1`, 2.9%; under `CC(C)(C)NCCOc1ccc(Cl)cc1Cl`, 7%.

Consider `CN=C1S/C(=C\c2cc3c(cc2Br)OCO3)C(=O)N1C`, for which the displacement was -7.3%. With `Cc1cccc(N2C(=O)c3ccc(Oc4cccc([N+](=O)[O-])c4)cc3C2=O)c1C`, the displacement amounted to 16.8%. As to `CC(=O)Nc1ccc(N2C(=O)C3C4c5ccccc5C(c5ccccc54)C3C2=O)cc1Cl` (centres undefined), the displacement was found to be 0.8%. With `CC(C)Cn1c(=S)[nH]c2sc3c(c2c1=O)CC(C)(C)OC3`, the displacement was -1.9%. In the case of `NC(=O)c1ccccc1NC(=O)COc1ccccc1Cl` it was -8.7%; in that of `O=c1c([N+](=O)[O-])c(Cl)c2ccccc2n1-c1ccccc1`, 12.3%. Under `CCCC(C(=O)O)P(=O)(c1ccccc1)c1ccccc1` (centres undefined) stands 0.6%; under `COc1ccc(S(=O)(=O)Nc2cc(Br)c(O)c(Br)c2)cc1`, 0.7%. As for `CCOc1ccc(/C=C2\SC(=S)N(CCC(=O)Nc3cccnc3)C2=O)cc1`, the displacement stood at 77%. As to `Cc1cccc(OCC(=O)Nc2ccc3oc4ccccc4c3c2)c1`, the displacement was -6.4%. Under `Cc1cc(OCC(=O)NCCCN2CCOCC2)ccc1Br` stands -48.8%; under `Cc1cc(Cl)ccc1NC(=O)C(=O)N/N=C/c1cccs1`, 7.9%. As for `COc1ccc(-c2nnc(N)s2)cc1`, the displacement was -3.4%.

On to `CCN(CC)C(=O)c1ccccc1NC(=O)c1ccccc1F`, for which the displacement was 1.9%. Under `CC(C)(C)c1ccc(C=NN2CCN(Cc3ccccc3)CC2)cc1` stands -9.5%; under `CN(C)c1ccc(/C=N/N2CCN(c3ccccn3)CC2)cc1`, 0.1%; under `COc1cc(C2C(C(=O)OCCOc3ccccc3)=C(C)NC3=C2C(=O)CCC3)ccc1OC(C)=O` (centres undefined), -7.6%.

Regarding `Cc1cc2nn(-c3ccccc3)nc2cc1N`, the displacement worked out at 10.9%. As for `COC(=O)c1cc(C(=O)NC2CCSC2=O)cc([N+](=O)[O-])c1` (centres undefined), the displacement is 2.1%.

For the compound `COc1cc(/C=N\N2CCN(c3ccc(C)cc3)CC2)ccc1OCc1ccccc1`, the displacement came to 9.6%. Regarding `Cc1cccc(C(NC(N)=O)c2ccccc2)c1` (centres undefined), the displacement was -1%. In the case of `N/C(=N/c1nc2ccccc2o1)NC(=O)Nc1ccccc1` it was 5.2%; in that of `Nc1nc2ccccc2n1CCOc1ccc2ccccc2c1`, -3.3%; in that of `CCCCNCCCCCOc1ccccc1C(C)(C)C`, 9.1%. For `Cc1cccc(-c2cc(C(=O)Nc3ccccc3C(N)=O)c3ccccc3n2)c1`, the displacement is -7.7%. Turning to `CCOc1cc(/C=C2\C(=O)N(c3cccc(C(=O)O)c3)N=C2C)cc(Br)c1O`, the displacement is -104%. In the case of `CC(C)(C)NC(=O)c1cccc(NC(=O)c2ccc(Cl)c(Cl)c2)c1` it was 13.8%. Turning to `Nc1nnnn1/N=C/c1ccc(OCc2ccccc2)cc1`, the displacement turned out to be 11.6%. Under `CCCCOc1ccc2c3c(cccc13)C(=O)c1ccccc1-2` stands 176%.

`O=C(NC(Cc1c[nH]c2ccccc12)C(=O)O)/C(=C/c1ccco1)NC(=O)c1ccccc1` (centres undefined): the displacement is 1.8%.

As to `COc1ccc(C(=O)CC(c2ccc(C(C)C)cc2)S(=O)(=O)c2ccc(C)cc2)cc1` (centres undefined), the displacement was determined as 33.8%. In the case of `CCCOc1ccc(C2C3=C(CC(C)(C)CC3=O)OC3=C2C(=O)CC(C)(C)C3)cc1OCC` it was 6.1%; in that of `O=C(O)c1cc(NC(=O)c2ccc3c(c2)C(=O)N(C2CCCCC2)C3=O)cc(C(=O)O)c1`, 10.9%; in that of `CCCCOC(=O)c1cccc(NC(=O)c2cccc(Br)c2)c1`, 1.5%.

As for `COc1ccccc1CC(=O)Nc1cc(C)ccn1`, the displacement amounted to 12.9%. Turning to `O=C(CN1C(=O)c2cccc3cccc(c23)C1=O)OCc1ccc2c(c1)OCO2`, the displacement is -2.1%. In the case of `O=C(O)CCCN1C(=O)/C(=C\c2ccc(-c3cccc([N+](=O)[O-])c3)o2)SC1=S` it was 59%; in that of `COc1cccc(/C=N/N=C2/NC(=O)CS2)c1`, 4.6%. For the compound `Cc1ccc(OCC(=O)Nc2cc([N+](=O)[O-])ccc2Cl)cc1`, the displacement worked out at 7.1%. In the case of `O=C1/C(=C\c2ccsc2)SC(=S)N1Cc1ccccc1` it was 17.1%; in that of `O=c1oc2ccccc2c(O)c1Cc1ccccc1`, 13.1%. In the case of `O=C1NC(=S)N(c2cccc(Br)c2)C(=O)/C1=C/c1ccc(-c2ccccc2C(=O)O)o1` it was 0.4%; in that of `O=C(N/N=C/c1cc(Br)ccc1OC(=O)c1ccco1)c1cccnc1`, -2.3%. Under `COc1ccc(-c2c(C#N)c(SCC(=O)c3ccc(Cl)cc3)nc(C)c2C(=O)Nc2ccc(Cl)cc2)cc1` stands 3.9%; under `N=C1S/C(=C\c2ccc(-c3cccc([N+](=O)[O-])c3)o2)C(=O)N1c1ccc2c(c1)OCO2`, 11.6%; under `COc1ccc(C(=O)Nc2ccc(-c3nc4cc(C)c(C)cc4o3)c(O)c2)cc1[N+](=O)[O-]`, -0.7%. For the compound `Cc1cc(C(=O)Oc2ccccc2C(=O)O)c(C)o1`, the displacement is -15.8%. As for `COC(=O)C1=C(C)N(C)C(C)=C(C(=O)OC)C1c1ccccc1C`, the displacement is -10.6%. `O=C(/C(=N\O)n1cncn1)c1ccc(Br)cc1Br`: the displacement was found to be 11.1%. In the case of `CCCCc1ccc(NS(=O)(=O)c2c(C)cc(C)cc2C)cc1` it was -11.6%.

Take `FC(F)(F)c1cc(-c2ccccc2)nc2ncnn12`: the displacement was -13.3%. For `CCOc1ccc(NC(=O)c2ccccc2NC(=O)c2ccc(C)cc2)cc1`, the displacement is -1.3%. With `O=P(O)(Oc1ccc(Cl)cc1)Oc1ccccc1F`, the displacement is -8.1%. In the case of `COc1cc(C2C(C#N)=C(N)Oc3c2[nH]c(=O)[nH]c3=O)cc(OC)c1OC` (centres undefined) it was 5.2%; in that of `Cc1ccc(N2CCCCC2)c2c1C(=O)c1ccccc1C2=O`, 1.1%; in that of `O=c1[nH]c(=O)n(-c2ccccc2Cl)c(O)c1C=Nc1cccc(Cl)c1`, -4%. With `COc1ccc(Cl)cc1NC(=O)c1ccc(CN(c2ccccc2)S(C)(=O)=O)cc1`, the displacement is 8.4%. In the case of `Cc1ccc(/C=C2\SC(=S)N(CCC(=O)Nc3cccc(C)c3)C2=O)cc1` it was 0.5%; in that of `Cc1ccc[n+](CC(=O)c2ccc(-c3ccccc3)cc2)c1`, 14.4%; in that of `COc1ccc(NC(=O)C2=C(C)NC(=S)NC2c2ccc(OC)cc2)cc1` (centres undefined), 1.7%.

Consider `COc1cccc(N2C(=O)NC(=O)/C(=C/c3ccc(OC)c4ccccc34)C2=O)c1`, for which the displacement was -4.6%. In the case of `COc1ccc(CNC(=O)CN(c2cc(C)cc(C)c2)S(C)(=O)=O)cc1` it was -4.3%. Under `Cc1c(Cl)cccc1-n1ncnc1-c1ccccc1Cl` stands -1.3%; under `COC(=O)c1cc(C(=O)Nc2nc3ccccc3s2)cc([N+](=O)[O-])c1`, 12.7%.

In the case of `Cc1ccc(C(=O)Nc2ccccc2C(=O)N2CCOCC2)cc1`, the displacement was 2.4%. Under `CCN1C(=O)/C(=C\c2ccc(-c3ccc([N+](=O)[O-])cc3)o2)SC1=S` stands -9.1%; under `Cc1ccc(S(=O)(=O)N2CCC(O)CC2C)cc1` (centres undefined), 10.6%; under `O=C(O)c1ccccc1N=Nc1cc(-c2ccccc2)oc1O`, -49.9%.

Take `COc1ccc(N(CC(=O)NCc2ccccn2)S(=O)(=O)c2ccc(OC)c(OC)c2)cc1`: the displacement was -15%.

Consider `O=C(NC(c1ccccc1)c1ccccc1)C(=O)c1c[nH]c2ccccc12`, for which the displacement was determined as 10.3%.

As for `COc1ccc(C2/C(=C(\O)c3ccc(Cl)cc3)C(=O)C(=O)N2c2cccnc2)cc1` (centres undefined), the displacement came to 6.2%.

For `COc1ccc(/C=C2\C(=O)NC(=O)N(c3ccccc3Cl)C2=O)cc1Br`, the displacement was 5.7%.

For `CC(=O)c1cccc(NC(=O)COc2ccc(C)cc2C)c1`, the displacement was 0%. For `Cc1ccc2nsnc2c1NC(=O)c1ccc(-c2ccc(Cl)cc2Cl)o1`, the displacement was determined as 41.5%.

Consider `Cc1ccc(C(=O)N2CCN(Cc3ccccc3)CC2)cc1`, for which the displacement amounted to 10.2%.

With `CCOc1ccc(N(CC(=O)NCc2ccc(Cl)cc2)S(C)(=O)=O)cc1`, the displacement is -2.6%. In the case of `NC(=O)c1c(N)sc2c1CCCCCC2` it was -1.2%. Regarding `COCCCNC(=O)C(=O)Nc1ccc(Cl)cc1C`, the displacement amounted to 8.5%. Take `NC1=NC(=O)/C(=C/c2ccc(OC(=O)c3ccco3)cc2)S1`: the displacement is 3.9%.

Consider `CCOC(=O)C1=C(c2ccccc2)N=c2s/c(=C\c3cccc(O)c3)c(=O)n2C1c1cccc(OC)c1OC` (centres undefined), for which the displacement came to 7.6%. On to `CC1=C(C(=O)OCCOc2ccccc2)C(c2ccc([N+](=O)[O-])cc2)C2=C(CCCC2=O)N1` (centres undefined), for which the displacement is -10.3%. In the case of `Cc1cccc(OCC(=O)Nc2ccc(N(C)C)cc2)c1` it was 12.1%; in that of `NC(=O)c1ccc(N=Cc2ccccc2[N+](=O)[O-])cc1`, -12.2%; in that of `CCCOC(=O)c1ccc(NC(=O)c2cc3ccccc3oc2=O)cc1`, 4.1%. As for `O=C(COc1ccccc1F)Nc1nc(-c2cccs2)c(NC(=O)c2ccccc2)s1`, the displacement worked out at 14.6%. Regarding `C/C(=C\C(=O)c1ccc(Cl)cc1)Nc1cc(Cl)cc(Cl)c1`, the displacement is -5.9%.

Turning to `CCOC(=O)c1cccc(NC(=O)/C=C/c2ccccc2)c1`, the displacement was 15.5%. Turning to `C=CCOc1c(Cl)cc(/C=C2\C(=O)NN(c3ccc(Cl)c(Cl)c3)C2=O)cc1OC`, the displacement is 10.3%. Under `O=[N+]([O-])c1ccc(NN=C2CCCCC2)c([N+](=O)[O-])c1` stands 13%; under `O=C(Nc1ccccc1C(=O)Nc1ccccc1Cl)c1ccccc1Cl`, 1.4%. In the case of `Cc1oc2c(CN3CC4(C)CC3CC(C)(C)C4)c(O)ccc2c(=O)c1-c1nc2ccccc2s1` (centres undefined) it was 11.2%. In the case of `COc1ccc(CC(c2nc3ccccc3[nH]2)C(C)c2nc3ccccc3[nH]2)cc1` (centres undefined) it was 8%; in that of `O=C1NC(=O)C(=Cc2ccc(Cl)c([N+](=O)[O-])c2)C(=O)N1`, -18.5%. Regarding `COc1ccc(/C=N/N2C(=O)CSC2=S)cc1`, the displacement amounted to 31.4%. Under `O=C(Nc1cccc(-c2nc3ccccc3[nH]2)c1)c1ccccc1Cl` stands -3.8%; under `CCOC(=O)C1=C(N)Oc2cc(O)ccc2C1c1ccccc1` (centres undefined), -8.2%; under `C(=C\CSc1nc2ccccc2[nH]1)/CSc1nc2ccccc2[nH]1`, 1.8%. For the compound `COc1ccc(N2C(=O)CCC([N+](=O)[O-])=C2C)cc1`, the displacement was -4.2%. Under `C/C(CN1C(=O)c2ccccc2C1=O)=N\NC(=O)c1cccc(Cl)c1` stands -4.6%; under `O=C(O)/C=C(/c1ccccc1)C(F)(F)F`, 2.6%. As for `O=C(Nc1ccc(F)c(Cl)c1)c1ccncc1`, the displacement was determined as 7.1%.
